# Assay results as given in publication PMC10726135.
# The other results are listed elsewhere or left out. At the low end of the ranking the order means little. The protein was read in a cell extract, so binding may be indirect.
# Target: T1, HNF4alpha8 (COS-7 nuclear extract) (UniProt P41235-5)
# T1 sequence: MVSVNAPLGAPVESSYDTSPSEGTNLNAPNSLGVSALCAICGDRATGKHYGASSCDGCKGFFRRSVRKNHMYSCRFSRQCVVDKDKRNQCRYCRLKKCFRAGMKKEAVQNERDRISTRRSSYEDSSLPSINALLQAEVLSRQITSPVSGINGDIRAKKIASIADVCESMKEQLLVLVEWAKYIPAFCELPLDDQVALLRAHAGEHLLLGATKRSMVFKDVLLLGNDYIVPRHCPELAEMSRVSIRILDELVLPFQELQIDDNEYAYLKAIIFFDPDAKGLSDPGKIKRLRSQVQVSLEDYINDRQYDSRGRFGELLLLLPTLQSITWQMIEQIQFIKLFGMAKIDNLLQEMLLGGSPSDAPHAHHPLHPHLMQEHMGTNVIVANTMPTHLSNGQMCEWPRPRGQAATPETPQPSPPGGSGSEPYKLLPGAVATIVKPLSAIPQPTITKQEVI
# Assay: protein-binding microarray
# Settings: COS-7 nuclear extract on double-stranded Agilent 4x180k PBM; binding buffer, salt, pH and temperature not given; high values mean tight binding; double strand, one strand shown; sequences stand for … in …GCCTAGGGAGATTAGAGTATCGGTCGA
row,Sequence,binding signal (log2 normalized intensity)
1,CTTTGACCTCAGAGAGCCGGAAACTCCACC,-0.861
2,TCCAAAGGTGTCAAGAACATAGCCCTCTAC,-1.28
3,GCCCACTTTCCTGGGCCGGGGTAGCGCTCT,-1.14
4,ACATCCTCTCAGGTCAAAGTTTGCCTTGAC,3.22
5,ATGCTATCTCCCAGTTCTTTTGACCTTTGC,8.5
6,CAGGTGAGCCCTACTCAGGTTAATCTCAAA,-0.661
7,CTATGTCAATAGAGCATGAGAACTTCTTCC,-1.07
8,CTCTCCACCCCCATGCAAGTTCCCACAGAG,4.72
9,CCTGATAATGACTCTTGAACCACAGTCCCC,1.63
10,TTTCTTTGTACTGCTTCCAAAACATTGTAG,-0.0169
11,GAGGCTGAAGTGAAGTTACAAAGGTCACAC,6.46
12,AGATCAGATGGGGTGAACTTTGGACCACAT,8.04
13,GAGGGGTCTGAGCACATCACACAGGCATAT,-1.32
14,ACAGTAACCCTTGAGCTCTGCACAGCACAA,-1.17
15,GCACCAGAGCAGGACTGATATCCTGGGCTT,-1.18
16,TAGTACTCTGCCATGTGCTATTCTGTCTCC,0.737
17,CTTAAGTCTGAATTCTAGTCCTATCACTGT,0.249
18,CATCACACTCCTACCCATTCTTCAGAGGCA,-1.32
19,ACCTCCACCAGATAGCAAGGAGACATCGCT,-1.28
20,CAAGAATTGGAACCCTGCTGTCCATAGACA,-1.42
21,AGATGCCAGGAGAGCCGAAGCAGTCAAATG,-1.37
22,TCCATTCTCACTGACTCACGGCAGCTTGTA,-1.24
23,TGGACCATTGCTGACCTTGCCTCTGTGCTC,1.8
24,GGAAGTCCAGCATTCTTTTCCCCATACCAG,0.799
25,TGACCCTTGCACTGTAAGATCAAGATTAAG,3.95

row,Sequence,binding signal (log2 normalized intensity)
1,AAGAAAAAACAAAAAGATGGTCTTACAACA,-0.886
2,ACCGAGCAGCTCTTTACAAAGCCCATGCTG,-1.42
3,CTGGTCGACCTCCCCGTCACCCTCCCCGCC,5.78
4,TTGACCACCTACTGTTTGTGCAGAGGAGAT,0.828
5,TCTACACTGCTTACCCTGCAGTGTGACCTT,4.68
6,GGCTCAGGTAAAGGCATGCTTGGCATCCCT,-1.12
7,GGCCAAATCAGAACTGAGTTACTTGTGCTA,-1.28
8,CAAGAGGCTTCTTATCAGCAGCTGGGGTGA,0.485
9,GATAAGGATGGATCAAAGGAAACTGCTTGG,-1.2
10,CTCCCCCTCCTGCCCTATGTCCTCCAGCTC,4.16
11,TGCTGGGGGCTGGGCCCCACAGTGCATCTG,-1.21
12,AAACCATCCCAGGCATCCAGGCCAGTGGGG,-1.15
13,TGTGTTGCACTGTTTGCATAAAGTTAAACT,0.142
14,CTGAACCTTGTCCCACTCTTGGGTCAACAT,3.01
15,GTCACGTGGGTCCAGGGTCACGTGCCGCTG,1.45
16,AGATAGCTGTTAAATGGAGTGGAATTTGGA,3.36
17,AGTACCTCTCAAAAATCTCACTCACCCTAA,-1.38
18,CTACAGCCTGATGTTGACAGAGCTCCCATC,-1.27
19,AAAGTCAACACTTAGGGTGGATACTTTGAC,0.31
20,CACAGTGTTATTTGCTGAGGTGGGGGAGGT,0.772
21,AGGAATATTAGTTTAACTCCTAGGTAATTT,-1.01
22,GGTATGTTAGATTAGTGTGCAGCTTTGTGT,1.72
23,TTAAGCAGATGTTTCTGCAAGCACACTGTC,-1.18
24,TAAGGAGCTGAGTCATAGTGGACTTTGCCT,7.86
25,GTCCTTCCCCCGCCAGATGTTTTTACCCTG,2.88

row,Sequence,binding signal (log2 normalized intensity)
1,TGCCTTATCTGGTTCAAAGGTCATTTCTGC,7.61
2,TACCCTGAGGGACTCACTATCTTGAGGCTG,-1.31
3,ATTTATTAACTGGAGATAACACAACCCCTA,2.41
4,AAAAGTCTACCTTTGGCCTGGGGATTTACT,1.67
5,GTAACAGTTGCAGCTTCAGGAGCTGCAGGG,-1.16
6,GAATGCGCTTTCATGAGATGAAAGCTTCTG,-1.32
7,GCAAACCTCCCCAGCCCAGGTGGCTGCATC,0.909
8,ATAAAAGAGAAGATAATGGATTGGGGGCCA,-1.36
9,AGATCTCAAAGTCCAAATAGCGCTAACTCT,3.33
10,GACATGTTTCTAACTGCCCGCATTCTGTTC,1.8
11,GAAGTGGGGTAAGCAAGGCTCTTAGCAGAA,-1.44
12,CCCCCACCACAAAGCAGTGAGTGAAACATC,2.28
13,AGGAACCTGTTTTACAGGACATAGTCCTCT,0.897
14,CCTGTTTACAATGGAAAGATTAGGTCAAAG,1.48
15,AGCCTGAGGCAGTTGGAAAATATTTCTCTG,-1.24
16,TTCAGCTAGCTGAGTGAGTAGGTTCTCAGC,-1.16
17,GCCCCCAGCCAGGCCCCAGGCCAACCGGTT,5.24
18,GGGGCCACCTTTTCAGCTTCCTCCTGCGTC,-1.24
19,GCCTGTGACAAAGTCCATCTGGGCAAGGTG,4.17
20,CAGGGTCCAACCCACAGGGGTAGAAGCTGA,-0.939
21,CTGAGGAAAGGAAGATGCACATTCCCTCCA,-1.33
22,AAACATAGAAAGGAGTACACACCATAAGAG,-1.3
23,ACCTTCCATTACCACATTCTCACCACTAGG,-0.686
24,CAACTATAGAAAGCCTTTGAACTGTGTTGC,2.21
25,AGGTGGAGACCTCTGCAGGAGGACTGGATC,-0.956

row,Sequence,binding signal (log2 normalized intensity)
1,TTGCTGGTCAAGCTAAGCACAACTGATTCT,-1.2
2,ATTCACATCTCCAGTTCCAAAGTCCAGGTG,6.55
3,AAACCTACACAGACCCTCTTTTCTTTGTAC,1.09
4,TCTTCATTTCCCTCATGCAGGGAGGTCAAA,3.16
5,GGCAAAACACCCCTTTCACTTCTTCCCCTC,3.61
6,ATTGTGAAACGTTTGAATTCTTGCCTATCC,-0.841
7,CTGTGTGGGAAGAGGGCCTAGGGCAGATCC,-1.28
8,TAACCTGCAGTTTCCCTATTCTCAGTGATA,-0.292
9,GAAATTTCCTCTTACCACATCTCAACCTTT,3.82
10,GAATTGGGACCTGAGAACATGTAATCATTT,0.552
11,AGACTCAGCATGTCTTCTGACCTTTGGCAA,6.98
12,ACTTCAAGGGAGTAAAGGTCGTTCTATCGG,4.85
13,TTGCAACCAAAGGAGTCCTGGCTGACAGAT,-0.977
14,GCCTAACTTTGATAGGCACAATCAGCAAAC,-1.26
15,GGGGATGAAGGGGGCGGGGGCGAAAGGGAG,-1.4
16,CGGACGTGTTCCCACAGTGCCCTCTATTGG,2.88
17,TCACCCACCAGAGGGAACGCCCGACGCGAA,-1.37
18,CCACAACCTACCCTTTGCCCTGGACATATT,3.27
19,AGCCTCAAAGATCAAAGGTAGATGAATCCA,1.5
20,ACATAGTCCCTGCACAGGTTCCTCGCCTAT,-1.36
21,GCTTGCAAGACTGCATTCTCTAGATGTCCC,0.707
22,GAGAGGAGCAGGGTATCAGTTGAACAGAAT,-1.38
23,ACCCAGGCATATCCAACCTTCTCCCACTTC,-1.33
24,AGGCCCCAGCCACGCCCTCTAACCCAGGTT,3.05
25,CGGCCGCTCCCTCCCCTCCTCCCTTGCTCA,4.26

row,Sequence,binding signal (log2 normalized intensity)
1,GTCAGTCATACAGAGCTGTCACGCAGTGTT,-1.18
2,TCTGTCCTTTGTCCCACATCTGTGAAGATA,1.44
3,GGGCTCTCAGAATCTGCCGATCACTGGCCC,-1.22
4,TTTTGCCTTGCATCAGAATCTGGACAGTGT,1.41
5,AGCTGCAAAGGCACAGATCATATGGCCCAC,-1.42
6,TAATCTCAAAGTGTCAGTCCAGAGTTTGTG,1.32
7,CATGCACCTGCGGATAATCAAAGGTTGGTC,2.16
8,TTCAAAGGCTCCCCTAATCCCTGTGACATT,2.32
9,CTAAAGGCTGTGTCGGTATAAGTTCTACAT,0.312
10,AAGGCAGGAGAATCGCTTGAACCCAGGGGA,-1.15
11,TTCTGAGAGTGGCAAGCAGGAGCTGGCCTG,-1.32
12,AGAAAGGTCTAAAAGTAGCTGTTGGAATTT,2.16
13,TCCACATGTGGGGAAACTGGACTGTAATTT,2.24
14,AGCAATGTTTCTTGTCCAGGGACTTTGAAC,6.55
15,GCAGAGGCTGCAGAGGTTTCGCAAGGACGT,-1.18
16,GACATAAAATTAAAGCGGACGGGCTGCGGA,-1.33
17,CCACCACAAACCCTTCATCCAGCTGTGCTT,-1.19
18,TGACCCTTGAACAATGTGGGGGTCGGGGCA,2.97
19,GTTTTACAAACACAATGGAAGGCTGTATGT,0.119
20,TGAAACAGTGGGCAATATGAAGGGGAAAAA,-1.48
21,TATTCAGTCCCCCATCCCAGAGGTCAAACT,5.57
22,TACACAAGTAGAATGAAAGCGGCTCAGGAA,-1.22
23,AGTGGGAGGTGGAAGTGGCAGATTAGAGAC,-1.2
24,GTGGAGGATTTGGGTGATGTTTGGTTAAGA,1.1
25,CCTCCGCTCCGCCGGACCGGCCAAACTGGT,-1.18

row,Sequence,binding signal (log2 normalized intensity)
1,CCTTTCATGTTGAACGTCTTCAGAAACTAA,0.814
2,CTGTGTTATGCTTGCAGGTGTCAGGGGTCA,4.84
3,CCATTGTTATCTGATCAAATTCCACACCCC,3.2
4,GCACAACATACTTGGAGACAGTCACTCCCA,-1.42
5,ACTGGTTTTTCTTGGGTGTATGGGTATAGG,2.21
6,AGCCTAGGGTGAGGTGTTCGGGGGACGGAG,-1.2
7,TGGAATGTCTCTGGTTGAAGGGGAGGTTAT,0.848
8,AATGCCAGGCATTTGCGATAATAGAGATTG,-1.4
9,GAAGGATAGAGAGTTGGGAGGGAACAGTCC,-0.498
10,AGCTGTGTCTACCCTTTTGCCCTTTGAGCT,6.67
11,GTCCTGTGGGGCCCAGAGCCAGGTGTGCTG,-1.16
12,GCATCTGGACCATTGCTGACCTTGCCTCTG,2.32
13,AAGCTTTCTTGGGCAAGAAAGGGGTCAGCA,3.02
14,CAAGCTCTAGCATCCCTCTCTTGCTGGGCC,-1.32
15,GGACACAAAGTGGACAGTGTCTGACTAGAG,-0.393
16,TCCAGCTCTGTGACTTTACCTGAAATGAGA,-1.27
17,CCTTCGCTCGGCTCGCTCTCCCTGCTGGCC,-1.17
18,TTTACTTTTTAAACACCTAGAGTTACAGTC,-0.226
19,GCACTTGATGTTCCCCCTCCCTGGACTCCT,4.71
20,ACACGAAACAAGTAGCAGTTCAAAAGTTCA,2.36
